Data from PubChem BioAssay (NCI).
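1) Cells in 96-well plates. 2) Compound, 48 h, 5 concentrations. 3) Linear interpolation between surrounding doses. 4) Unreached endpoint = highest concentration. The concentration for 50% growth inhibition is given as GI50. TGI marks complete inhibition of growth.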

Each compound was assayed on NCI-H322M lung (assay: growth of human tumour cells (NCI), 48 h).
With `Nc1nc(N)c2c(n1)NC(c1ccc(F)cc1)CC(c1ccc(Nc3nc(NCCO)nc(Nc4ccc(Cl)cc4)n3)cc1)=N2` (stereo not given) the GI50 was 2.43 µM and the TGI was 6.96 µM.
Work on `COc1cc(-c2nnc(SCc3ccc(O)c4ncccc34)n2-c2ccccc2)cc(OC)c1OC` yielded a GI50 of 0.39 µM and a TGI greater than 100 µM.
`Nc1nc(-c2cccc([N+](=O)[O-])c2)c(N=Nc2ccccc2[N+](=O)[O-])s1` showed a GI50 of 11.1 µM and a TGI greater than 100 µM.
With `O=S(=O)(Nc1cccc2ccccc12)c1ccc(-c2cnc(C3CC3)o2)cc1` the GI50 was 1.82 µM and the TGI was greater than 100 µM.
`c1ccc2c(NCCCn3ccnc3)c3oc4ccccc4c3nc2c1` gave a GI50 of 1.77 µM and a TGI of 9.11 µM.
